Assay results from the RNAGym collection of RNA variant scans (doi:10.7554/elife.90254).
The source gives no read counts; variants with many changes may rest on few reads.

B1: OR4K15 (parent)
chain: GUUAACGGUCAUAGGCCAUGGAAACUAGGAGCACCAUUUCGCUGCCAGUGAAGAAAUGAACAAAGAAAAUCUGGGCCAGGCAGGCAUCAAAAGAAAUAGUCUUGCGCUCAACCAGAAAGUCUGUAAUCAUUUUAAGGGUA

Variants of: B1
Assay: self-cleavage, relative activity (ratio to wild type); higher = more cleavage; in vitro, sequencing; the parent is a self-cleaving ribozyme

Variant | self-cleavage
G80A A90G U122A | 0.13
A24G A125U U139A | 2.73
A22G A64U A66G U70C A78G | 0.03
A22G A30U U37G A82U | 0.19
U49C G73A G84C A96G | 0.12
U87C A94G U127C | 1.02
C81U U87G A117G | 0.09
C6U A59G A63G A89C | 1.16
A24G U87C U122C | 1.49
U9G A78U U87C U127A | 0.46
A27G U57C U103C | 0.05
A18U U37C U108C | 0.01
G28A U43C U70C U100C | 1.2
A11G A18U A96U U130C | 0.36
U38C G44A G79A A89G A118G | 0.06
U43A A52G U87C A129G | 0.78
U37C A95G A135G | 1.4
A11G A62U A95U | 1.42
A56G U87C U102C A118C | 1.76
A22G A52G A59G A60U A63G A82G U108C A126G A129U | 0.03
A13G A33C A96G | 0.32

Variant | self-cleavage
A11G C32U U108A A111C | 0.02
U9C C32U U72C A78U A91G U103A U108C U120C | 0
U9C A33G A52G | 1.09
A23G A52G U108A | 0.04
U49C A56U A116G | 0.19
A18G A54G A68G A89U | 1.7
A36G A98G U124A | 0.11
A33U A89G A129G | 0.99
C10U U108C A111G | 0.01
A13G A56G A125U | 0
A59G A95U U108C A140G | 0.01
A62G U127C G136U U139C | 1.65
U3C U43C A60G | 1.61
U19C A117G A125G | 0.33
A68U A94U U131C | 1.64
A60G A64G C77U A78G | 0.29
U9C A22U A52U A125G | 0.8
A13G A68G A82U | 0.3
U19C A68G A91U A114G | 0.57
G74U U100C U108A | 0.04
G44C A59G A86U A118G U130C | 1.61

Variant | self-cleavage
A55G A67G U108C U132C | 0.01
U43A A64G A68G U139A | 1.25
A24U A82G A116G | 0.45
A13U A18G U19C A23G A66G A118G | 0.27
A30G A91G A118G | 0.33
A22G U72A A82U A91G | 0.13
U2A A62U A68G | 1.21
A5G U38C A98G | 1.28
U87C A90G A96U | 0.73
A67C A68U A111G | 0.01
U3C A78U A86G A96G | 0.12
U9C A66G A135U | 1.38
A24G A69U A78G | 0.26
A51U A52G A67G U97C | 0.87
A63G U72G A78U A140G | 0.07
A30U C32U U38G A62U U127C | 0.35
A5G U38A A51G A95G A111G | 0.05
A4G U38C A68G U87C A118U | 1.03
A22U A63G A110G | 0.18
U2C A27G U38C A59G A60G A90G | 0
A24G U38C A60U | 1.57

Variant | self-cleavage
G41A A62G A78U U120C A140G | 0.25
U57A A89G U130C | 1.06
A18G A27G A67G U70C A78U A86G | 0.2
G7A A33G A117U | 0.63
A5G A11G G20A U43C A64G U87C A89C | 1.48
A54U A59G A69G A117U | 0.31
A13G A18G U97C A125U | 1.25
U9C A30U A51U U87C | 0.65
A54U A94G A125G U132C | 0.45
A56G U87A U108C | 0
U43A A60U A67G | 1.36
A62U A67G C77A A92U | 0.54
A67G G79A A114G U130C | 0.04
A23G A27G A36G U72A A114C U122C U127C | 0
A18G G29A A63G U122C A125U | 0.83
U3C U108A A118G | 0.02
A13G A33U A68U A94G U100C | 1.14
C45U A64G U103C U130C | 0.12
U19C A47G A94G | 1.45
A90G A91G A94G | 0.39
U49A A94G A96C | 0.35
